About 1,200 (0.4%) of roughly 300,000 compounds were called active. The inconclusive results got no clear call from the source; some entries with a clear call stand among them for comparison. Rule as the data show it: active = activity change below about -75% (passing the limit was not always enough); inconclusive = no clear call, values can overlap the other calls.
Experiment: Vibrio harveyi AI-2 quorum sensing modulators, primary screen, JMH597 strain, luminescence/OD600 ratio (AID 2094);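 also: luminescence divided by OD600 gain over 9 h not by final OD600 alone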
Settings: Vibrio harveyi JMH597 AI-2 luminescence/OD600 ratio, 9 h; at 7.5 µM; hits give low values; 0 = neutral-control median; strain lacks LuxN and CqsS sensors
With `N/C(Cc1ccc(Cl)c(Cl)c1)=N\OC(=O)c1cccs1` the activity change was inconclusive: -69.8%.
In the case of `CCCC(=O)NC(c1ccc(OC)cc1)c1ccc2cccnc2c1O` (centres undefined), the activity change is reported as inconclusive: -74.4%.
With `CC(CNc1ccc([N+](=O)[O-])cc1)NC(=O)c1ccccc1Br` (centres undefined) the activity change was inconclusive: -68.1%.
For `C=CCOc1ccc(/C=C2\SC(=S)N(C(C(=O)O)c3ccccc3)C2=O)cc1` (centres undefined), the activity change was inconclusive: -83.8%.
For `Cc1cccc(NC(=O)CO/N=C/c2ccc3c(c2)OCO3)c1`, the activity change was active: -89.4%.
For `Cc1ccc(CN2CCCC(C(=O)N3CCCC3)C2)cc1` (centres undefined), the activity change was inactive: 16.8%.
In the case of `Cc1ccc(/C=C2/C(=N)N3N=C(CC(=O)N4CCCC4)SC3=NC2=O)cc1`, the activity change is reported as inactive: 31.2%.
With `COc1cccc(=O)c2c(C)n(-c3ccc(C(=O)O)cc3)c(C)c12` the activity change was inconclusive: -223%.
For `Cc1cc(C)cc(OCC(=O)N/N=C/c2ccc([N+](=O)[O-])o2)c1`, the activity change was inconclusive: -41.1%.
In the case of `Cc1occc1C(=O)N(C)CC1CCCN(CCc2ccccc2F)C1` (centres undefined), the activity change is reported as inconclusive: -53.1%.
With `C(=N\N1CCN(Cc2cccc3ccccc23)CC1)/c1cccnc1` the activity change was inactive: -2.61%.
With `OCCNCc1ccc(-c2ccccc2)cc1` the activity change was inactive: 12.4%.
In the case of `Oc1c(C(c2ccccn2)N2CCCCC2)cc(Cl)c2cccnc12` (centres undefined), the activity change is reported as inconclusive: -38.4%.
In the case of `O=[N+]([O-])c1ccc(NCCc2ccccc2)c(Br)c1`, the activity change is reported as inactive: 18.7%.
For `O=C(Nc1nnc(-c2ccco2)o1)c1ccc(Cl)cc1`, the activity change was inconclusive: -80.5%.
In the case of `Cc1ccccc1-c1nnc(SCc2ccccc2F)o1`, the activity change is reported as active: -81.2%.
With `COC(=O)CSc1ccc2nnc(-c3ccc(F)cc3)n2n1` the activity change was inactive: 13.2%.
In the case of `O=C1N=C(N2C=CC(=C3C=CNC=C3)C=C2)/C(=C/N=NC(=O)c2ccccc2O)S1`, the activity change is reported as inconclusive: -162%.
In the case of `O=C(N/N=C/c1cccc(F)c1)c1csc2c1CCCC2`, the activity change is reported as inconclusive: -70.9%.
With `O=C(COC(=O)c1n[nH]c2ccccc12)NC(=O)NCc1ccco1` the activity change was inconclusive: -75.6%.
With `CSc1ccccc1NC(=O)c1ccccc1C` the activity change was inactive: 33.6%.
In the case of `O=C(CNC(=O)c1cccs1)OCc1ccc(Br)cc1`, the activity change is reported as inconclusive: -77.6%.
In the case of `O=C(NC1=NCCS1)c1cc(-c2ccc(F)cc2)nc2ccccc12`, the activity change is reported as inactive: 39.9%.
In the case of `O=C(NC(=S)NNC(=O)[C@H]1C[C@@H]1c1ccccc1)c1cccc(F)c1`, the activity change is reported as inconclusive: -78.5%.
With `Oc1c(C(Nc2nccs2)c2ccc(C(F)(F)F)cc2)ccc2cccnc12` (centres undefined) the activity change was inconclusive: -44.2%.
For `COc1cccc(C(=O)Nc2nnc(-c3ccc(Cl)cc3)o2)c1`, the activity change was active: -87.2%.
In the case of `COc1ccc2cc(C3(C)NC(=O)N(CC(=O)NCCC4=CCCCC4)C3=O)ccc2c1` (centres undefined), the activity change is reported as inconclusive: -71.3%.
For `CC(C)c1nc2oc3ccccc3c(=O)c2c(=O)n1-c1ccccc1`, the activity change was inactive: 30.6%.
With `Cc1onc(-c2ccccc2Cl)c1C(=O)O/N=C(\N)c1ccc([N+](=O)[O-])o1` the activity change was inconclusive: -28.1%.
With `O=C(Nc1ccc(O)cc1C(=O)O)c1cccc(Br)c1` the activity change was inactive: 2.5%.
With `CC(C)(C)c1nnc(N/N=C/c2cc(Br)ccc2O)n(N)c1=O` the activity change was inconclusive: -77.6%.
For `COc1ccc(CO/N=C/c2c(C)[nH]c(=O)[nH]c2=O)cc1`, the activity change was inconclusive: -76.3%.
For `C=CCS(=O)(=O)N1CCCC(Cc2ccccc2C)(C(=O)OCC)C1` (centres undefined), the activity change was inactive: 25.6%.
In the case of `CC(=O)Nc1ccc(C(=O)COC(=O)C2CC3CCCC(C2)C3=O)cc1` (centres undefined), the activity change is reported as inconclusive: -76.3%.
In the case of `C(=C\c1nc(-c2cccnc2)no1)/c1ccccc1`, the activity change is reported as active: -94.8%.
For `CC(C)Cc1nnc(NC(=O)CCN2C(=O)c3ccccc3C2=O)s1`, the activity change was inconclusive: -76.8%.
In the case of `CCOCCc1nnc(NC(=O)CN2C(=O)c3ccccc3C2=O)s1`, the activity change is reported as active: -89.2%.
With `O=C(NCCOc1ccccc1)C(=O)c1c[nH]c2ccccc12` the activity change was inconclusive: -76%.
For `c1ccc(CSc2ccc(-c3cccnc3)nn2)cc1`, the activity change was inconclusive: -74.2%.
With `COc1cc2cc(C(=O)Nc3ccc4c(c3)OCCO4)[nH]c2cc1OC` the activity change was inactive: -3.13%.
In the case of `O=C(CNC(=O)c1cccc(Br)c1)N/N=C/c1cccs1`, the activity change is reported as active: -83.1%.
With `CC(C)(C)c1cc(OC(=O)c2ccccc2F)ccc1O` the activity change was active: -85.9%.
With `Cc1ccc(N/C=C(/C#N)c2ccsc2)cc1` the activity change was inconclusive: -132%.
In the case of `Cc1cccc(C(=O)NC(=S)NNC(=O)c2cccs2)c1`, the activity change is reported as inconclusive: -53.6%.
With `COc1cccc(NC(=O)COc2ccc(Br)c(C)c2)c1` the activity change was inconclusive: -69.6%.
With `CCc1nnc(NS(=O)(=O)c2ccc(N=CC3=C(O)CC(C)(C)CC3=O)cc2)s1` the activity change was inconclusive: -71%.
With `COc1ccc(CCNC(=O)CN2C(=O)NC(CCSC)C2=O)cc1` (centres undefined) the activity change was inconclusive: -73%.
For `Cc1ccnc2nc(C(=O)Nc3ccc(S(=O)(=O)N4CCCC4)cc3)nn12`, the activity change was inactive: 18.8%.
In the case of `C/C(=N\Nc1ccc2nncn2n1)c1ccccn1`, the activity change is reported as inconclusive: -83%.
For `Cc1ccccc1-c1nnc(SCc2ccccc2)o1`, the activity change was active: -95.9%.
For `S=c1[nH]nc(CSc2nc3ccccc3s2)o1`, the activity change was inconclusive: -153%.
In the case of `CCOC(=O)CC1CCCCN1C(=O)c1cc(COc2cccc3cnccc23)on1` (centres undefined), the activity change is reported as active: -86.5%.
With `O=[N+]([O-])c1ccc(Sc2cccc3cccnc23)c2cccnc12` the activity change was inactive: 4.38%.
For `O=C(Nc1cccc2ccccc12)c1ccc([N+](=O)[O-])o1`, the activity change was active: -128%.
For `CCCCOc1ccc2c(c1)C(=O)c1cc(O)ccc1-2`, the activity change was inconclusive: -61.1%.
With `O=C(N/N=C\C=C\c1ccc([N+](=O)[O-])o1)c1cccs1` the activity change was inconclusive: -69.7%.
With `COc1ccc(CN=Cc2c(O)[nH]c3ccccc23)cc1` the activity change was active: -90.2%.
In the case of `O=C(CSc1ccccn1)N/N=C/c1cc([N+](=O)[O-])ccc1O`, the activity change is reported as inconclusive: -120%.
With `O=C(NC1CCCC1)c1sc(=S)n2c1[nH]c(=O)c1ccccc12` the activity change was inactive: 37.7%.
In the case of `N#Cc1ccccc1NC(=O)CNc1ccc(Cl)c(C(F)(F)F)c1`, the activity change is reported as inconclusive: -72%.
In the case of `Cc1ccc(SCc2nc(-c3cccnc3)no2)cc1`, the activity change is reported as inconclusive: -80.9%.
For `CCOC(=O)c1ccc(N2C(=O)C=CC2=O)cc1`, the activity change was inconclusive: -89%.
With `COc1ccc(Cl)cc1N(CC(=O)N1CCCC1)S(C)(=O)=O` the activity change was inconclusive: -27.8%.
With `O=c1cc(C(F)(F)F)[nH]c2c(C(F)(F)F)cccc12` the activity change was inconclusive: -63.6%.
In the case of `COCC(C)NCC(=O)NC(C)CCc1ccccc1` (centres undefined), the activity change is reported as inactive: -0.605%.
In the case of `O=C(Nc1nnc(-c2ccc(F)cc2)o1)c1cccc([N+](=O)[O-])c1`, the activity change is reported as inconclusive: -81.8%.
For `O=C(Nc1ccccc1N1CCN(C(=O)c2ccccc2)CC1)c1cc(Br)ccc1Cl`, the activity change was inactive: 12.5%.
With `COc1cccc(NC(=O)c2cc3ccccc3o/c2=N\O)c1` the activity change was inconclusive: -39.6%.
In the case of `COc1ccc2[nH]c(=O)c(CN(CCO)S(=O)(=O)c3ccc(C)cc3)cc2c1`, the activity change is reported as inconclusive: -790%.
For `CC(C)(C)c1cc(C(=O)N/N=C/c2ccccc2O)n(-c2ccccc2)n1`, the activity change was inactive: 40.8%.
For `Cc1cccn2c(=O)c3cc(C#N)c(=NC(=O)c4ccncc4)n(CCCOC(C)C)c3nc12`, the activity change was inactive: 19%.
With `COc1ccc(Cc2nnc(N/N=C/c3ccc(O)cc3)[nH]c2=O)cc1OC` the activity change was inconclusive: -62.9%.
With `COc1cccc(C(=O)Oc2ccc3ccc(O)cc3c2)c1` the activity change was inconclusive: -70.7%.
For `O=C(Nc1nc(-c2ccccn2)cs1)c1ccc(S(=O)(=O)N2CCCCC2)cc1`, the activity change was inconclusive: -62.6%.
For `Nc1[nH]c2cc([N+](=O)[O-])ccc2c1-c1ccccn1`, the activity change was inconclusive: -100%.
For `COc1ccc(NC(=O)COC(=O)c2ccc([N+](=O)[O-])o2)cc1Cl`, the activity change was active: -89.1%.
With `O=C(N/N=C/c1ccc([N+](=O)[O-])o1)C1CC1` the activity change was inconclusive: -107%.
For `COc1ccc(NC(=O)C2CCN(S(=O)(=O)c3c(C)noc3C)CC2)cc1`, the activity change was inactive: 7.08%.
For `CCOC(=O)N1CCN(c2ccc(Cl)c(Cl)c2)CC1`, the activity change was inactive: 12%.
In the case of `Cc1ccc(/C=C/C(=O)c2ccccc(=O)c2O)c(C)c1`, the activity change is reported as inconclusive: -147%.
For `O=C(N/N=C\c1ccccn1)c1ccccc1O`, the activity change was inconclusive: -39.9%.
In the case of `Cc1ccccc1/C=C/C(=O)c1ccc([N+](=O)[O-])o1`, the activity change is reported as inconclusive: -70.5%.
For `Cn1cnc(S(=O)(=O)Nc2ccc(OC(F)(F)F)cc2)c1`, the activity change was inconclusive: -62.3%.
With `FC(F)(F)c1cccc(NC(=S)NNC(=S)Nc2ccc(Cl)cc2)c1` the activity change was inconclusive: -75.5%.
With `Cc1ccc(CNC(=O)C2CCN(S(=O)(=O)c3cccnc3)CC2)cc1` the activity change was inconclusive: -77.2%.
In the case of `c1ccc(-c2noc(CSc3nc4ccccc4o3)n2)cc1`, the activity change is reported as inconclusive: -68.7%.
In the case of `Cc1nc(C)c(C(=O)Nc2ccc(Oc3ccccc3)cc2)o1`, the activity change is reported as active: -82.8%.
With `CCc1ccc(NC(=O)COC(=O)CCc2nc3cc(S(=O)(=O)N(CC)CC)ccc3n2C)cc1` the activity change was inactive: 46.1%.
With `O=C(Nc1nnc(C2=COCCO2)o1)c1ccc([N+](=O)[O-])s1` the activity change was inconclusive: 32.6%.
With `CCCC(=O)Nc1c2c(nn1-c1ccc(C)cc1)CS(=O)(=O)C2` the activity change was inactive: 24.5%.
In the case of `S=C(Nc1ccccc1)N1CCOCC1`, the activity change is reported as inconclusive: -43.1%.
With `O=C(/C=C/c1c(F)cccc1Cl)NCc1ccc2c(c1)OCO2` the activity change was inconclusive: -77.2%.
With `COC(=O)c1ccc(NC(=O)Cn2nc(C)c3ccccc3c2=O)cc1` the activity change was active: -96.2%.
With `O=C(/C=C/c1ccccc1)/C=C/c1ccccc1` the activity change was inconclusive: -67.8%.

Reference: PubChem BioAssay AID2094 (Broad Institute, 2009)
